The chains are these.
B1: chr12:8716970:8716971:+_ENSMUSG00000020594_ENSMUST00000111122|mus_mus|FALSE|FALSE (ssRNA)
RNA: GGGAGUUCUACAGUCCGACGAUCUGGAGAAGCCUUGCCUUUUUGAUCUCCUUUCUCAGGUCCAUCUGUUUCAGCAUCUCUAGUACCAAAAGUUCCCUUCCUAAAUCGAGAAUCCAAUUUAUCAGCAGGAGAGGAACUUAAUACCAACAGAGGAUUGAGCAUCA
B2: 118652278_118652398_1266_3pUTR_ENSMUSG00000020114_ENSMUST00000020315|mouse|control|control (ssRNA)
RNA: GGGAGUUCUACAGUCCGACGAUCCGUCAGCAUCCAUAGCAUUCUCAUCUUCAUCUUCAUCAUCGUAAUUGUAAUUUGGAUCAUAGGUAAGGUAUUUUAGACAAAUGUUUAUAAUGGUAGAAACAUGAGGAUAAACUUCUUUAGCAACAGAGGAUUGAGCAUCA
B3: chr3:53254358:53254359:-_ENSMUSG00000042997_ENSMUST00000130348|mus_mus|motif|central (ssRNA)
RNA: GGGAGUUCUACAGUCCGACGAUCCAGAAGUCAAAAUCCCAGCACAGAGCAGGGAGGGGCUCAUGAAGCCUACCACGAACGGAGAAGCUACUGGAGGUAGCUGUGGGGGACCUUUCCUAAAAGGUGACCCUGCUUCGAGGAGUGCAACAGAGGAUUGAGCAUCA
B4: chr1:53517203:53517204:+_ENSG00000116171_ENST00000408941|hu_hu|motif|central (ssRNA)
RNA: GGGAGUUCUACAGUCCGACGAUCAGAAAAAGUUAUUUUAAUUUUCUAUUAAACAUUCUUCUCAAAGCAUUAUUUUAUCCGGUAUCUCACUGAAUUUUAAGAAAUAACAUUAGUAUUAGAAAAACUAGGAAAAAAGAUAAAUGCCAACAGAGGAUUGAGCAUCA
B5: chr11:22897662:22897663:+_ENSMUSG00000007739_ENSMUST00000173867|mus_mus|motif|central (ssRNA)
RNA: GGGAGUUCUACAGUCCGACGAUCGCAAAACUGAAUAAGCCCAAUCUUAGCCUUUUCAACUCUUGUUAUGCCAGAAUUUGCGGCUUUCUGUGUGAGAACGAGGCCUUCCACCAGCUCACAGUCAUCUAUUGUCCCACCAAGCUUCAACAGAGGAUUGAGCAUCA
B6: chr18:9859796:9859797:+_ENSG00000168461_ENST00000578921|hu_hu|motif|central (ssRNA)
RNA: GGGAGUUCUACAGUCCGACGAUCCAUUGACACUUCUCUGAUUUCCUCCAAAAAGUAAUAAAUAAAGGCUUACUUCCAAAGCGGGCGGAAAACUAACCUCCUGAACUAAAUUUGCCUUUCAGUGAAGGUUGGUUAGGUAACAAACAACAGAGGAUUGAGCAUCA

This is one part of the list.

This assay concerns the target T1, UNK ZnF1-3 (human, UniProt Q9C0B0 31-174).
T1 sequence: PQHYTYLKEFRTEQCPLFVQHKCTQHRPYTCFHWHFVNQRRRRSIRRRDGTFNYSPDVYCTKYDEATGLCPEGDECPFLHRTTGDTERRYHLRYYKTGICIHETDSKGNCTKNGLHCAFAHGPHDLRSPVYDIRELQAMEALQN
Kind of assay: nsRBNS (natural sequence RNA bind-n-seq); RBNS binding buffer (assumed for nsRBNS): 25 mM Tris pH 7.5, 150 mM KCl, 3 mM MgCl2, 0.01% Triton X-100, 500 ug/ml BSA, 20 U/ml SUPERase-In, 4 C; UNK is unkempt and MSI1 is Musashi-1; names of the RNAs are library labels; protein concentration not given here; high values mean tight binding.
Molecule B1 gave a binding signal of 0.913 enrichment R.
As for B2, the binding signal stood at 1.05 enrichment R.
B3 registered a binding signal of 1.17 enrichment R.
For B4 the value was 1.35 enrichment R; for B5, 0.868 enrichment R.
The molecule B6 gave a binding signal of 1.32 enrichment R.

The values are drawn from publication PMC12136788.
